Laboratory results from the supplement of paper PMC3334620.
In all, about 33,000 sequences were measured (“E-score (-0.5 to 0.5)”: median about -0.011, highest 2% from about 0.28 on). The list shows a part of the results.

What follows are sequences tested against T1, Gcr1 (UniProt P07261) (assay: PBM E-score (8-mer binding enrichment) (E-score (-0.5 to 0.5)); higher = stronger / more preferred TF binding; most listed sequences are background and not binding sites). Conditions: protein concentration: 100 nM; construct: GST-full length.
T1 sequence: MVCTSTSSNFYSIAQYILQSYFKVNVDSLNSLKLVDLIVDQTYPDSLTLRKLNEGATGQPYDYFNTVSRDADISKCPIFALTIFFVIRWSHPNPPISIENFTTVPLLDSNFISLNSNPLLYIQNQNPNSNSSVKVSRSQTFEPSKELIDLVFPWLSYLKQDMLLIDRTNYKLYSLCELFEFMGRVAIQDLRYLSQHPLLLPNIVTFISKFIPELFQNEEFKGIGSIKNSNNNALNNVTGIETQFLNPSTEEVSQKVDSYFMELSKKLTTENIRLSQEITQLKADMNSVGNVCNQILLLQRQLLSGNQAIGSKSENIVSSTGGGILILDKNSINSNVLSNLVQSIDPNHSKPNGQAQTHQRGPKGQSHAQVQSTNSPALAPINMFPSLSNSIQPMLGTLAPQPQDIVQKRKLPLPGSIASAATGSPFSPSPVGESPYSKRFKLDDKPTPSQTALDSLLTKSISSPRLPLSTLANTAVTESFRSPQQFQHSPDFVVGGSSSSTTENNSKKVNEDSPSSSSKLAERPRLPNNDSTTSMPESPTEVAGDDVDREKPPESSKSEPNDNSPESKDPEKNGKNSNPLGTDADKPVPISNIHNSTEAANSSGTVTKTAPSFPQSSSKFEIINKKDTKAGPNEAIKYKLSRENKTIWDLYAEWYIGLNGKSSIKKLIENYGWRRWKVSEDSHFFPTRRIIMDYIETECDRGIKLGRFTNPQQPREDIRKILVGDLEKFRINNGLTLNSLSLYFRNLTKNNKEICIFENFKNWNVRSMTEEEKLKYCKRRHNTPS
How it was run: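 PURExpress in vitro transcription/translation supplied GST-tagged yeast transcription factors, either full-length or DNA-binding domain. Applied at about 100-200 nM to universal all-10-mer Agilent arrays double-stranded by primer extension, the bound protein was detected with fluorescent anti-GST. E-scores, modified Wilcoxon-Mann-Whitney statistics, were given by the Universal PBM Analysis Suite to ungapped eight-base words pooled with their reverse complements after masliner normalisation.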

Sequence	PBM E-score
AGCGGTTC	0.069
ACACCTAA	0.0466
CCAGTGTC	-0.124
GGACTGAA	-0.175
AATCCGAT	0.0605
CAGAAACA	0.121
GCAAACTA	0.0887
ATTGGTAA	0.0893
GCGTGGCC	-0.164
AGCGATGC	-0.287
AAACCAGA	0.0613
ACGGGGAA	-0.0966
AACACCCT	0.0941
ACAGATGA	0.0106
CTTCATCC	-0.101
CGGCCTTA	-0.152
ACAAGTGC	-0.149
CTCGAGCA	-0.0607
AGAATCAT	-0.178
CGCCTGTC	-0.105
CAGTCAGG	-0.0592
CAAGAGAG	-0.0666
GAAATATA	0.125
ATCACTGA	0.0727
CTACTGCA	-0.116

Sequence	PBM E-score
ATCGTCAG	-0.142
GCCGTACC	-0.107
ACGAAATA	0.0201
CAGGCCGG	-0.251
GTCGAGGA	-0.16
ACCATGCC	0.00147
AACCACAG	-0.114
TAGATACA	-0.00219
AAGGCGTC	0.165
CTGTAAAG	0.0144
CATGCGAA	0.139
CCCTCATC	-0.0318
CCTGCCCA	-0.178
CCGTGGAG	-0.117
CAGTCCGA	-0.131
AATAGACG	0.286
ATTGTGAG	-0.17
ACGCCAAT	0.0703
CCTCGCAG	-0.161
ACGTCATA	-0.0778
CCTATAGC	-0.0383
CTTAGGTC	-0.00353
ATCCCACG	0.0222
AGCATACG	-0.188
CGCTCAGA	0.155

Sequence	PBM E-score
CCTTCGGA	0.0526
AACTGCCA	0.136
AGCGCATA	-0.0791
CTCACTAA	-0.193
CCGTCAGC	-0.182
ACCATCAA	-0.00248
CTAATATC	0.0746
GCCAGATA	0.0103
AACGGTCA	-0.0326
GCAGGGCC	-0.0699
CATGGGAC	-0.0763
GCACAGTA	-0.0105
CGACTTTC	-0.0428
AATACCGG	0.254
GCAAGAAA	0.0798
ATCGTATC	0.0732
AACTGCCG	-0.00624
CGCAAGAA	0.155
CCGAGACG	-0.0437
CGCCGCTA	0.0386
AGTGCCCA	0.0254
TAAAGCTA	0.0575
GATGGCAA	0.0367
GGACGGAC	-0.0721
AGTCCTTG	-0.159

Sequence	PBM E-score
CGTGAAGA	-0.154
CTGGACGC	0.412
GAATATCA	-0.0967
AGGACCGG	-0.22
GGACCGGA	-0.00546
TAACACTA	0.0834
ACCGGGAG	0.113
ATGTCTCC	-0.0483
ACCAAAAC	0.087
ATGGACGA	0.0454
GCTCTAGA	-0.0648
CTACTTGA	-0.0652
ATGTGGAC	0.0114
ATAAGATC	-0.00262
CACAACCG	0.0627
CAGATCCC	0.156
CCTTCTTA	0.053
GGCAGCCA	0.422
ACCGCCAA	-0.0843
AGGAACTG	0.077
CATTCTTA	-0.0289
ATGTTGTG	-0.0505
ACCGGCGC	0.0222
CTGTTACC	-0.148
GCGTAGAC	-0.25

Sequence	PBM E-score
TCGACCAA	-0.347
GTGGCGTA	-0.0888
TATTCCAA	0.224
TGAGATAA	0.0929
GTGGAATA	0.051
ACTCCGCG	-0.0906
GACGAGCA	-0.0479
ACGACAGA	0.124
CGCCAAAA	0.113
ACTTCGAC	-0.0575
CATGCTGG	-0.137
ATCCAAGA	0.138
CTCTGATC	-0.199
ATATGTTC	-0.0761
GGTATGAC	-0.272
CCTCTGAA	0.0419
CCTCGTCC	-0.0638
CCGTGCTC	-0.126
AAGCCGAT	-0.0786
GGCCCAGA	-0.0885
ATAATCAC	-0.0298
TTACAAAA	0.159
CCAGTGCA	0.212
AGCAACAT	-0.0291
CCGAGCTC	0.00959

Sequence	PBM E-score
AAACCACC	0.0521
CCTGCGGC	-0.0454
ACTACCCA	-0.135
CCCCGGGA	0.0413
AGAAGATC	0.0201
AGCCTAAC	-0.0701
AGTGGCCC	0.0072
CAATCCGA	-0.0306
GCCCCACC	0.231
AAAGAATG	0.129
AACCTCCT	0.0152
GACCTGGA	-0.164
ACATAAAT	0.117
CAGTCGAG	-0.124
GGACTAAC	-0.157
AGGTCATA	-0.117
AACAACGT	-0.15
GCACAGCA	-0.0605
CCGGAGTA	-0.118
CATACCAA	-0.0378
CTGCGTTC	0.0949
AGACGATC	-0.203
ACTGGGAC	-0.054
GCACAGAA	-0.0512
ACGTGCCA	-0.122

Sequence	PBM E-score
GGACCGTA	-0.0641
ATCGTCTG	-0.0101
CCCGCGGG	0.0784
AAGTTTCA	0.115
CGCACACA	-0.194
GGCGCCAA	0.377
CGTCAGTC	-0.228
AGTTGAGA	0.0303
GCTTGCTA	-0.0698
TATACTAA	-0.109
ATTTACGC	0.129
ATATTCGG	0.24
GGCGGCCA	0.241
CATGCTAC	-0.123
GATAGCCA	-0.0815
AGGCCCAG	-0.134
CTGATAAA	0.159
ACCGAGTC	-0.306
ACCGACAG	-0.0165
ACTATATA	-0.0114
CCCGACCC	-0.0484
TAACAGTA	-0.051
